The list shows a part of the results. At the low end of the ranking the order means little. Measured with an extract: partners may take part in the binding.
target: T1, HNF4alpha2 (COS-7 nuclear extract) (UniProt P41235); assay: protein-binding microarray; settings: COS-7 nuclear extract on double-stranded Agilent 4x180k PBM; binding buffer, salt, pH and temperature not given; high values mean tight binding; double strand, one strand shown; sequences stand for … in …GCCTAGGGAGATTAGAGTATCGGTCGA
T1 sequence: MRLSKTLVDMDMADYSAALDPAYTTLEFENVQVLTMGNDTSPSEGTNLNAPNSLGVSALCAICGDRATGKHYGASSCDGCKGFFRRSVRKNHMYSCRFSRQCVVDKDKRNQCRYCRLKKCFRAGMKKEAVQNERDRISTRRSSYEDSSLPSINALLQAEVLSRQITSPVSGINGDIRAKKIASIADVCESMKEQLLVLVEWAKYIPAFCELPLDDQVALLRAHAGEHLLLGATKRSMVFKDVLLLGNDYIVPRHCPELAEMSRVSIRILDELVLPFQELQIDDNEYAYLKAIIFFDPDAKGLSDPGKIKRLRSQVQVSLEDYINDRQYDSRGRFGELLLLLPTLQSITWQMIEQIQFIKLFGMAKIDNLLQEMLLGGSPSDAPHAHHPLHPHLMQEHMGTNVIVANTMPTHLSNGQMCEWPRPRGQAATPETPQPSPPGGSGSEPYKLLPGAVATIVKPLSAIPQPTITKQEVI

Sequence	binding signal (log2 normalized intensity)
CCCTTCTGTCAAGTCCAAAGTTCTTGGCCA	3.18
CTTTAAGTAGGCACTATTATCCCCCTATCC	3.5
GGATTAAAGAATTCGTCCAGGGCCGCCCAA	-1.08
GCTCTGCTACTGACCAGATGTTATTACTTA	0.359
CCACCTGCCCCAGGAATGCCTTTTCTTTCA	1.43
ATTACTGAAGTTCCAGAGCCTTCAAAGGAA	-0.96
TGATCTGGTTTTTGTTGTTGAGCAAATCAT	1.75
CAGTCACTCATGAGCCATCCTGAACAAATG	-1.12
AAGCCACAGAGATCAGAATCATAAAGCAGG	-1.03
AATTAAGGAGATTTGGCTTTGAATTCCACT	-1.22
AAGTTAACCCCATCACCCATGTGCAGGCAA	2.31
CTCTGGCCAGAGAGATGTCAGCCCAAGATA	3.01
AAAAACACTCAGTTAATTATGGTAGAGCTA	-1.18
GGAGGGTGAAGGTCACAATTTCCAGGAGTA	2.13
AATTCTCATTCATCCAAGGACTTTGTAATC	3.2
GCCACTGGTTAGTTCCAAAGGACAAATCTC	1.11
TGCTGATTACATAGGAGGCTGCCTCTCTGT	-1.02
CGAAATGGGGATAAACACCCCCATCTATGC	1.3
CCTCTCTCTCTCTCTCTCACACACACACAC	2.09
ACATTTTACAACCTATTCTCTCTGAGGGCT	-1.12
AGGTAAGTACCAATATTTGTTAAGTACCCA	-0.115
GAGCTCAAATGACAGAACAGTCCAGAGATT	-1.12
AAGGATTAGCAGATAAATCTAGGCCTAGGC	-1.19
AATCCTGGATTCCTCCAGCCCTCCTCTCTG	-0.331
TGTGGGCCTCACACCCTCTAGGGTAGATAA	-0.451

Sequence	binding signal (log2 normalized intensity)
CAAACACTCATTTCACATTGGTGCCCTTTG	3.72
TAGGCCACCTGTGTCAACATGGACTTTGTT	5.86
TCCTTCACTAAAGTTACAAGATCTTTGGAC	3
GATAACCTCAAAGAGCATGGCGCCAGGGAG	-1.02
ATCCTGAAAACAAATAGAGCAGACTATTAT	-1.04
GTAGAGCTTATCAAGGCAACTTTGGGCCAA	-1.16
TGTCTCTGGTTGAAGGGGAGGTTATCTTGG	1.78
ATCTTCTTACCCCTTTGCTGATTACCTCAA	1.48
CCCAAGCTGTTATTCCAGGCACAAGAATGG	-1.1
AATATTCTGGCTTCTCGTGAGTATTTTTTC	0.954
AGAATGGGCCAAGCTTAGGAATTCCAAGAA	-1.11
ATTCTAATCCTCTGGTCTTTGCCCCAGCTC	3.3
AGCACACACGAGCTGTGCGCTTAGTCCATG	-1.19
CCCTCACTGAATATGTTCGGGAGACATGTG	1.79
GCCTGGTCCGCCCTTCCCCGCTCTCCCCGC	3.94
CATGTAACCAAAATGCCAATAGTGGCTTTG	-1.11
AAGGACACAACAGAATGTGACTGCCCTCTC	2.24
GGGGGAGGTGCAGAGAGGGGCAGGGTTCAC	1.57
TGGATTGTACTGTGTCTTGATCTTGCAACT	1.74
TTTGAGTCATTGAGGCTTTGCCTTAGGATT	-0.162
AATTCCTGCTGGGCGTGAACTGTGACTTTT	2.12
GAAGCTCTGGGAGTGCCCTTGCCGAGAGCG	-1.16
ACAGTCCACAGAAACGCAGTCCTGAAAACA	-1.21
AACAGTGGCTGGCCATGAGTGAGCACTTAA	-1.13
TAGGGGGCAATTTCCCTGGTCGACCTCCCC	2.79

Sequence	binding signal (log2 normalized intensity)
AACTTTTTCCTTTTCTTATCTGTTCACAGT	1.76
CAGCTGGATTGTTACATCATAGTGTTTGCC	1.04
AATATTTGCTGTCTCTTCCACCTGGAATGC	0.819
ACTGAGGGGTGGGGACCAGTGGGGGGAAGC	-1.03
TGCAAGCACACTGTCCTGCTTTGAAGATAA	-0.841
TTTCCGAGGAGAGCAAACACCAAGGGCAGA	-1.09
TCTTTGTAGGAAGGCTTTGAAGTCTGGTGG	1.75
TTTGACACAAAGGGAGGCCTAGACACAGAC	-1.21
AACTCCAGCTGGGCATTAAAGGATATCATC	-0.995
TTTCCGCTAAGTCCAAAGGTAAAAACTGGC	2.81
TCTGCACAAAATACAAGTCGTAAAGACCTT	0.709
TATCCCGCTGCTTCCACCAGGGCTAGACCC	-0.257
GAGAGTTCCCTTGGAATGCCAGATGACCTT	4.14
GAAGGTCAGGAGCCCCACAGAGCAAAGGTC	5.54
AAAGCCAACAGTACAGCCTTTGATCTACAG	-0.766
ATGCCAAGTTTCAGGCTATGAATGAAGTCT	-0.988
TGCCGGGAAAGGCATACGTGCTTAATCCTG	-1.22
TATACAGCGTCTAAGAAGATAACATATACT	-1.21
CCCAGCCACCAAATCAATCAAACTCTCTGT	-0.0534
GTTTGAAGGCTCCGGAAACGTATGACTTTG	0.343
TTGTACGCGTCGAACTAGCTTGGTGCAGGG	0.0601
TATACATTTTCCCACTTGTATGTCCAAGGG	0.769
AGAAATGGCCTTAGGGTGAGGCATCTGGAC	0.212
ACAATGTGGGGGTCGGGGCACTGGTCCCCT	0.81
TGACAGGTTTCTTGCTGAAGGTAGGACAGG	-0.314

Sequence	binding signal (log2 normalized intensity)
AAGTGGTATCCTGCAGTCAGTCTGATTGGT	0.556
GAATCTTAACCAAAGTGTGATTAACAAGCA	-0.877
TAAAGCTGAGGTATTTTTGCAATCCTCCAC	-0.721
CTTTTGTGCTCTGTACCCGGCTGCCCGATA	1.1
TGACACAGCTGGCCCATGGGCACCTCGTCC	-1.22
CTCTTAGTGAAGGATGGGGACCTTGTTACC	1.62
ATTATCCCCCGCAACTATTTATGAGTCTTG	1.69
CTTTGCTCCCACCCTGCAATTCCCCTGGGC	3.29
ATAAGAACACAAAAAGCCTGAGCATCTTAT	-1.15
ATGACTCACTCAAGGCAGCTCAGCTAGTGA	-1.05
TTGGTGGTGAGGGTGGGCCTGGGGGGAGAC	-1.15
TCAAAGTCCAAATAGCGCTAACTCTATATC	0.465
TCACTTAAAATGAGACTTCCCAGCTGCTGG	-1.08
TCTCTCAGTCTCTGTGGGAGAGTAAGTGCT	-1.2
ACCCTCATTTGCTTGACCCGGGTACTGGAA	2.06
CTAGGAGCATGTCAAAAGCTAAATACCCTC	-0.98
TACTCAAAGGTTAACATTCTTGCTTTCTGA	1.19
CTGACTGCTGACCTTTAAGCCTATAGTTTC	2.81
AATGCTTTACAAGGTGGTTGCTGTTATCTT	1.65
CCGTGACCCTCAGGAACCAAGCATTTTGCA	-1.02
AAGAATTCCTAATAATACTGACTGAGAAAC	-1.1
GCCAATCTCTGGCATGTATTTATCAACATT	0.315
TACTTTGCTTTTATCTACCAGGATGTGTGA	1.77
GGGTGTGAGAGAGAAGGCAAGATTTTGTCC	-0.0786
CCCCTTTCCACTCTACCGTCCTCCCCCACG	4.28

Sequence	binding signal (log2 normalized intensity)
AGGGTGAAAGTACAGTGATGTTTGTCAAAT	1.72
ATCTAAGGACAAAGTCCAAGGAAGGGCAAA	4.16
ATCTGTGCCACAGGTATTTCTGTTGTTGAT	0.909
CTGTAAAACTCCTGTGCAAGTAATTAAACA	-0.992
TCCAAGGCGGTGTGGAGGTCTACCAGGAAT	-0.419
ATTGGAAGCTCTTTCCCTCCACCAAGTTTC	0.191
CCCTCGACCTTTGCCCTCCATAAGGGGGAG	6.24
TCTTTCTGGAACCTACAGCTGGGGCCACCT	-0.762
AAATAAGGAATGTGAAATGAATTTACAAAC	-1.06
GAGTCATTATCTTTATTATCCCAGTAGAGA	2.01
GAGCAGGCCATGTGCAGAGGAGGGGGCAGG	-1.14
CAGAGCCTCCCCATTGTAGATTCAATAATA	1.09
CCCTTCCCCCAACAGGGCTCCTGTTCAGCA	2.55
ATTTTGCATTGCTCACATAGCTGGGACTGT	-0.861
GTGTGTGTGTGTGTGTCTGTAGTTTTCGTT	2.62
TGTGAAATGAATTTACAAACAAATGCAAAA	-0.536
AGACTTGGGGCCAAAAAATTCCAGGCACAG	-1.23
ATCCCATTCCCTCTAATCTGGGACAAGGGG	-0.975
ACTTTCCCCCCTCACACTTTGGCTACTCAG	2.8
CTCTGAGTTTTGAGTGTGTTTCTTGTTTCA	1.98
TTTGTGTGTTCCTTTTTCTGTTCAATGGTG	2.37
GGTCTCCTTGCCCCACCCCCCACCCCAGAA	6.86
AGTATCCTGGTAGTGCGACAAGAATGTGGT	1.27
CCAGCCCCGGGAATTCTGGGTAGTGTAGTT	0.462
AATGGACATCTCTAGGAACTCTGAGCTCTT	-1.07

Sequence	binding signal (log2 normalized intensity)
TACTCCTCCTGGCTTCTGGACTATGCCTTG	2.99
GGCTTTTGGGCCCTGTCTGATAAGGGTGTT	1.12
TTGTTGGGTCAGTTTATCGAAAATCCCCCA	4.01
GGTGTGCTGTTAGCTGAAGGACGTCAGAAC	1.25
GGGGGCAAGGTACACCATCTATGAGCTCAA	1.28
CATTTGGGGTCAGATAATTCTTTGCTGTGG	1.93
ATGGGATGACCTTTGAGCAATAGGAAATGG	4.18
CAGATCACAAAGGAGCTTGTAAGCCACAGT	-1.14
TTGTACTTTGGAGTTTACTTTAGATGTGTT	2.86
ATCCAACCTTCTCCCACTTCCCTGCCTTTG	0.905
TTTGTCGCCTCTGACTTCTGACTTTTACCC	2.23
GGCTCAATGAGGTCAATAGTCCAGATACAG	3.53
GTGATACTCAAGGCATTTTCTTGTTGACTT	1.02
TGTGAAGAGTGTGGACTTTCACCTCCACCA	6.06
GGAAAACCAGAGACCTTTGTTCACTTGTTT	2.52
GATACTGATAACATGAGGTAGAGGGACACT	-0.851
ACCATGAGGTGACGGCTAAGAGAAATCCAC	-1.2
TCCCCAGAGCCCCCTTGATGCATCAGACCC	4.63
ATGTAATGTATGCATAGACTGCCCAGAATT	0.478
AGTTTTGAGTGTGTTTCTTGTTTCAGAGTA	1.87
